The other results are listed elsewhere or left out.
Experiments:
Test in all cases: glycan array binding signal (z-score within array); higher = stronger binding
Conditions in all cases: glycan notation: IUPAC condensed, linker removed
[1] = target: Fuc(a1-2)Gal
Method in brief: (§1)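 Arrays were curated from the Consortium for Functional Glycomics database, 3228 in total, and kept only where the protein sequence was available. Binding is expressed as a within-array Z-score. This score was averaged across arrays of the same protein sequence at different concentrations or buffers and across linkers, and negative values can be read as non-binding.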

[2] = target: Fuc(a1-2)Gal(b1-3)GalNAc
Method in brief: as §1

[3] = target: Fuc(a1-2)Gal(b1-3)GalNAc(b1-3)Gal
Method in brief: as §1

[4] = target: Fuc(a1-2)Gal(b1-3)GalNAc(b1-3)Gal(a1-4)Gal(b1-4)Glc
Method in brief: as §1

[5] = target: Fuc(a1-2)Gal(b1-3)GalNAc(b1-4)[Neu5Ac(a2-3)]Gal(b1-4)Glc
Method in brief: as §1

[6] = target: Fuc(a1-2)Gal(b1-3)GlcNAc
Method in brief: as §1

[7] = target: Fuc(a1-2)Gal(b1-3)GlcNAc(b1-3)Gal(b1-4)Glc
Method in brief: as §1

[8] = target: Fuc(a1-2)Gal(b1-3)[Fuc(a1-4)]GlcNAc
Method in brief: as §1

[9] = target: Fuc(a1-2)Gal(b1-4)Glc
Method in brief: as §1

[10] = target: Fuc(a1-2)Gal(b1-4)GlcNAc
Method in brief: as §1

[11] = target: Fuc(a1-2)Gal(b1-4)GlcNAc(b1-3)Gal(b1-4)GlcNAc
Method in brief: as §1

[12] = target: Fuc(a1-2)Gal(b1-4)GlcNAc(b1-3)Gal(b1-4)GlcNAc(b1-3)Gal(b1-4)GlcNAc
Method in brief: as §1

[13] = target: Fuc(a1-2)Gal(b1-4)[Fuc(a1-3)]GlcNAc
Method in brief: as §1

[14] = target: Fuc(a1-2)Gal(b1-4)[Fuc(a1-3)]GlcNAc(b1-3)Gal(b1-4)[Fuc(a1-3)]GlcNAc
Method in brief: as §1

[15] = target: Fuc(a1-2)Gal(b1-4)[Fuc(a1-3)]GlcNAc(b1-3)Gal(b1-4)[Fuc(a1-3)]GlcNAc(b1-3)Gal(b1-4)[Fuc(a1-3)]GlcNAc
Method in brief: as §1

[16] = target: Fuc(a1-2)GlcNAc
Method in brief: as §1

[17] = target: Fuc(a1-2)[Gal(a1-3)]Gal
Method in brief: as §1

[18] = target: Fuc(a1-2)[Gal(a1-3)]Gal(b1-3)GlcNAc
Method in brief: as §1

[19] = target: Fuc(a1-2)[Gal(a1-3)]Gal(b1-4)Glc
Method in brief: as §1

[20] = target: Fuc(a1-2)[Gal(a1-3)]Gal(b1-4)GlcNAc
Method in brief: as §1

[21] = target: Fuc(a1-2)[Gal(a1-3)]Gal(b1-4)[Fuc(a1-3)]GlcNAc
Method in brief: as §1

[22] = target: Fuc(a1-2)[Gal(a1-4)]Gal(b1-4)GlcNAc
Method in brief: as §1

[23] = target: Fuc(a1-2)[GalNAc(a1-3)]Gal
Method in brief: as §1

[24] = target: Fuc(a1-2)[GalNAc(a1-3)]Gal(b1-3)GlcNAc
Method in brief: as §1

[25] = target: Fuc(a1-2)[GalNAc(a1-3)]Gal(b1-4)Glc
Method in brief: as §1

[26] = target: Fuc(a1-2)[GalNAc(a1-3)]Gal(b1-4)GlcNAc
Method in brief: as §1

[27] = target: Fuc(a1-2)[GalNAc(a1-3)]Gal(b1-4)[Fuc(a1-3)]GlcNAc
Method in brief: as §1

[28] = target: Fuc(a1-2)[GalNAc(a1-4)]Gal(b1-4)GlcNAc
Method in brief: as §1

[29] = target: Fuc(a1-2)[GalNAc(b1-3)]Gal
Method in brief: as §1

[30] = target: Fuc(a1-3)GlcNAc
Method in brief: as §1

[31] = target: Fuc(a1-3)[Gal(b1-4)]GlcNAc
Method in brief: as §1

[32] = target: Fuc(a1-3)[Gal(b1-4)]GlcNAc(b1-4)Gal(b1-4)[Fuc(a1-3)]GlcNAc
Method in brief: as §1

[33] = target: Fuc(a1-3)[Gal(b1-4)]GlcNAc(b1-4)Gal(b1-4)[Fuc(a1-3)]GlcNAc(b1-4)Gal(b1-4)[Fuc(a1-3)]GlcNAc
Method in brief: as §1

[34] = target: Fuc(a1-3)[Gal3S(b1-4)]GlcNAc
Method in brief: as §1

[35] = target: Fuc(a1-3)[GalNAc(b1-4)]GlcNAc
Method in brief: as §1

[36] = target: Fuc(a1-4)GlcNAc
Method in brief: as §1

[37] = target: Fuc(b1-3)GlcNAc
Method in brief: as §1

[38] = target: Gal(a1-2)Gal
Method in brief: as §1

[39] = target: Gal(a1-3)Gal
Method in brief: as §1

[40] = target: Gal(a1-3)Gal(b1-3)GlcNAc
Method in brief: as §1

[41] = target: Gal(a1-3)Gal(b1-4)Glc
Method in brief: as §1

[42] = target: Gal(a1-3)Gal(b1-4)GlcNAc
Method in brief: as §1

[43] = target: Gal(a1-3)Gal(b1-4)[Fuc(a1-3)]GlcNAc
Method in brief: as §1

[44] = target: Gal(a1-3)GalNAc
Method in brief: as §1

[45] = target: Gal(a1-3)[Gal(a1-4)]Gal(b1-4)GlcNAc
Method in brief: as §1

[46] = target: Gal(a1-4)Gal(b1-4)Glc
Method in brief: as §1

[47] = target: Gal(a1-4)Gal(b1-4)GlcNAc
Method in brief: as §1

[48] = target: Gal(a1-4)GlcNAc
Method in brief: as §1

[49] = target: Gal(a1-6)Glc
Method in brief: as §1

[50] = target: Gal(b1-2)Gal
Method in brief: as §1

[51] = target: Gal(b1-3)Gal
Method in brief: as §1

[52] = target: Gal(b1-3)GalNAc
Method in brief: as §1

[53] = target: Gal(b1-3)GalNAc(b1-3)Gal(a1-4)Gal(b1-4)Glc
Method in brief: as §1

[54] = target: Gal(b1-3)GalNAc(b1-4)Gal(b1-4)Glc
Method in brief: as §1

[55] = target: Gal(b1-3)GalNAc(b1-4)[Neu5Ac(a2-3)]Gal(b1-4)Glc
Method in brief: as §1

[56] = target: Gal(b1-3)GlcNAc
Method in brief: as §1

[57] = target: Gal(b1-3)GlcNAc(b1-3)Gal(b1-4)Glc
Method in brief: as §1

[58] = target: Gal(b1-3)GlcNAc(b1-3)Gal(b1-4)GlcNAc
Method in brief: as §1

[59] = target: Gal(b1-3)[Fuc(a1-4)]GlcNAc
Method in brief: as §1

[60] = target: Gal(b1-3)[Fuc(a1-4)]GlcNAc(b1-3)Gal(b1-4)GlcNAc
Method in brief: as §1

[61] = target: Gal(b1-3)[Fuc(a1-4)]GlcNAc(b1-3)Gal(b1-4)[Fuc(a1-3)]GlcNAc
Method in brief: as §1

[62] = target: Gal(b1-3)[GlcNAc(b1-6)]GalNAc
Method in brief: as §1

[63] = target: Gal(b1-3)[Neu5Ac(a2-6)]GalNAc
Method in brief: as §1

[64] = target: Gal(b1-3)[Neu5Ac(a2-6)]GlcNAc(b1-6)Gal(b1-4)Glc
Method in brief: as §1

[65] = target: Gal(b1-3)[Neu5Ac(b2-6)]GalNAc
Method in brief: as §1

[66] = target: Gal(b1-4)GalNAc(a1-3)[Fuc(a1-2)]Gal(b1-4)GlcNAc
Method in brief: as §1

[67] = target: Gal(b1-4)GalNAc(b1-3)[Fuc(a1-2)]Gal(b1-4)GlcNAc
Method in brief: as §1

[68] = target: Gal(b1-4)Glc
Method in brief: as §1

[69] = target: Gal(b1-4)Glc6S
Method in brief: as §1

[70] = target: Gal(b1-4)GlcNAc
Method in brief: as §1

[71] = target: Gal(b1-4)GlcNAc(b1-2)Man(a1-3)[Gal(b1-4)GlcNAc(b1-2)Man(a1-6)]Man(b1-4)GlcNAc(b1-4)GlcNAc
Method in brief: as §1

[72] = target: Gal(b1-4)GlcNAc(b1-3)Gal(b1-4)Glc
Method in brief: as §1

[73] = target: Gal(b1-4)GlcNAc(b1-3)Gal(b1-4)GlcNAc
Method in brief: as §1

[74] = target: Gal(b1-4)GlcNAc(b1-3)Gal(b1-4)GlcNAc(b1-3)Gal(b1-4)GlcNAc
Method in brief: as §1

[75] = target: Gal(b1-4)GlcNAc(b1-3)Gal(b1-4)[Fuc(a1-3)]GlcNAc(b1-3)Gal(b1-4)[Fuc(a1-3)]GlcNAc
Method in brief: as §1

B1: CLEC7A (Homo sapiens), Q9BXN2 (protein)
chain: MEYHPDLENLDEDGYTQLHFDSQSNTRIAVVSEKGSCAASPPWRLIAVILGILCLVILVIAVVLGTMAIWRSNSGSNTLENGYFLSRNKENHSQPTQSSLEDSVTPTKAVKTTGVLSSPCPPNWIIYEKSCYLFSMSLNSWDGSKRQCWQLGSNLLKIDSSNELGFIVKQVSSQPDNSFWIGLSRPQTEVPWLWEDGSTFSSNLFQIRTTATQENPSPNCVWIHVSVIYDQLCSVPSYSICEKKFSM
glycan array binding signal (z-score) [1]: -0.219
glycan array binding signal (z-score) [2]: 0.23
glycan array binding signal (z-score) [3]: 0.421
glycan array binding signal (z-score) [4]: 0.301
glycan array binding signal (z-score) [5]: -0.104
glycan array binding signal (z-score) [6]: -0.16
glycan array binding signal (z-score) [7]: -0.058
glycan array binding signal (z-score) [8]: -0.999
glycan array binding signal (z-score) [9]: -0.527
glycan array binding signal (z-score) [10]: -0.842
glycan array binding signal (z-score) [11]: -0.798
glycan array binding signal (z-score) [12]: 0.509
glycan array binding signal (z-score) [13]: -0.352
glycan array binding signal (z-score) [14]: -0.311
glycan array binding signal (z-score) [15]: 0.077
glycan array binding signal (z-score) [16]: -0.179
glycan array binding signal (z-score) [17]: 0.273
glycan array binding signal (z-score) [18]: -0.447
glycan array binding signal (z-score) [19]: -0.383
glycan array binding signal (z-score) [20]: -0.043
glycan array binding signal (z-score) [21]: -0.165
glycan array binding signal (z-score) [22]: -0.703
glycan array binding signal (z-score) [23]: -0.472
glycan array binding signal (z-score) [24]: -0.353
glycan array binding signal (z-score) [25]: -0.922
glycan array binding signal (z-score) [26]: 0.091
glycan array binding signal (z-score) [27]: -0.815
glycan array binding signal (z-score) [28]: 0.042
glycan array binding signal (z-score) [29]: -0.22
glycan array binding signal (z-score) [30]: -0.337
glycan array binding signal (z-score) [31]: -0.765
glycan array binding signal (z-score) [32]: 0.343
glycan array binding signal (z-score) [33]: 0.278
glycan array binding signal (z-score) [34]: 0.695
glycan array binding signal (z-score) [35]: -0.149
glycan array binding signal (z-score) [36]: -0.49
glycan array binding signal (z-score) [37]: -0.081
glycan array binding signal (z-score) [38]: -0.328
glycan array binding signal (z-score) [39]: -0.468
glycan array binding signal (z-score) [40]: -0.067
glycan array binding signal (z-score) [41]: -0.102
glycan array binding signal (z-score) [42]: -0.977
glycan array binding signal (z-score) [43]: 0.017
glycan array binding signal (z-score) [44]: 0.056
glycan array binding signal (z-score) [45]: 0.397
glycan array binding signal (z-score) [46]: -0.643
glycan array binding signal (z-score) [47]: -0.565
glycan array binding signal (z-score) [48]: -0.747
glycan array binding signal (z-score) [49]: -0.429
glycan array binding signal (z-score) [50]: 1.31
glycan array binding signal (z-score) [51]: 0.077
glycan array binding signal (z-score) [52]: 0.042
glycan array binding signal (z-score) [53]: -0.778
glycan array binding signal (z-score) [54]: -0.395
glycan array binding signal (z-score) [55]: -0.084
glycan array binding signal (z-score) [56]: 0.619
glycan array binding signal (z-score) [57]: -0.359
glycan array binding signal (z-score) [58]: 0.465
glycan array binding signal (z-score) [59]: -0.31
glycan array binding signal (z-score) [60]: -0.502
glycan array binding signal (z-score) [61]: 0.106
glycan array binding signal (z-score) [62]: -0.25
glycan array binding signal (z-score) [63]: -0.478
glycan array binding signal (z-score) [64]: -0.613
glycan array binding signal (z-score) [65]: -0.132
glycan array binding signal (z-score) [66]: -0.055
glycan array binding signal (z-score) [67]: -0.328
glycan array binding signal (z-score) [68]: -0.184
glycan array binding signal (z-score) [69]: 0.451
glycan array binding signal (z-score) [70]: -0.319
glycan array binding signal (z-score) [71]: -1.03
glycan array binding signal (z-score) [72]: 0.542
glycan array binding signal (z-score) [73]: -0.463
glycan array binding signal (z-score) [74]: 0.389
glycan array binding signal (z-score) [75]: -0.174

— the supplement of paper PMC8728848
